Measurements reported in the supplement of paper PMC10037445.
In all, about 2,900 compounds were measured (“NF-kB SEAP reporter activity, fold change vs agonist alone”: median about 0.99, highest 2% from about 2.6 on). Some of the results follow.

Assays:
RAW-Dual [1] = test: NF-kB SEAP reporter activity, fold change vs agonist alone; cytotoxicity flag (confluency mask): not cytotoxic; higher = enhanced NF-kB activity
Method in brief: (§1)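 Reporter activity is given as fold change relative to agonist-alone wells. To measure it, 50 nL of library stock was pin-tooled onto RAW-Dual macrophages (50,000 cells/well, DMEM, 384-well plates), a PRR agonist followed 1 h later, and cells stayed at 37 °C, 5% CO2. Twenty hours on, supernatant was assayed for IRF (QuantiLuc luminescence) and NF-κB (QuantiBlue, 620 nm absorbance), and wells under 70% of agonist-control IncuCyte confluency in both mask sets were marked cytotoxic.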

RAW-Dual [2] = test: NF-kB SEAP reporter activity, fold change vs agonist alone; higher = enhanced NF-kB activity
Method in brief: as §1

RAW-Dual [3] = test: NF-kB SEAP reporter activity, fold change vs agonist alone; cytotoxicity flag (confluency mask): cytotoxic (confluency <70% of control); higher = enhanced NF-kB activity
Method in brief: as §1

[4] = agonist: ODN 1826 (TLR9) 0.5 ug/mL
[5] = agonist: Pam2CSK4 (TLR2/6) 0.1 ug/mL
[6] = agonist: Pam3CSK4 (TLR2/1) 0.1 ug/mL
[7] = library stock concentration (final ~1000-fold dilution): 10 mM, cytotoxicity flag (confluency mask): not cytotoxic, agonist: Imiquimod (TLR7) […]
[8] = library stock concentration (final ~1000-fold dilution): 10 mM, cytotoxicity flag (confluency mask): not cytotoxic, agonist: MPLA (TLR4) […]

## COC1CC2CCC(C)C(O)(O2)C(=O)C(=O)N2CCCCC2C(=O)OC(C(C)CC2CCC(O)C(OC)C2)CC(=O)C(C)C=C(C)C(O)C(OC)C(=O)C(C)CC(C)C=CC=CC=C1C (stereo not given) (library stock concentration (final ~1000-fold dilution): .1 mM)
RAW-Dual [1]; agonist: LPS (TLR4) 0.1 ug/mL
  NF-kB SEAP reporter activity: 1.2
RAW-Dual [1]; [4]
  NF-kB SEAP reporter activity: 1.31
RAW-Dual [1]; [5]
  NF-kB SEAP reporter activity: 1.53
RAW-Dual [1]; [6]
  NF-kB SEAP reporter activity: 1.44

## COC1CC2CCC(C)C(O)(O2)C(=O)C(=O)N2CCCCC2C(=O)OC(C(C)CC2CCC(O)C(OC)C2)CC(=O)C(C)C=C(C)C(O)C(OC)C(=O)C(C)CC(C)C=CC=CC=C1C (stereo not given)
RAW-Dual [2]; [7]
  NF-kB SEAP reporter activity: 1.44
RAW-Dual [2]; [8]
  NF-kB SEAP reporter activity: 1.5
RAW-Dual [2]; library stock concentration (final ~1000-fold dilution): .1 mM, cytotoxicity flag (confluency mask): not cytotoxic, agonist: Imiquimod (TLR7) […]
  NF-kB SEAP reporter activity: 1.35
RAW-Dual [2]; library stock concentration (final ~1000-fold dilution): .1 mM, cytotoxicity flag (confluency mask): not cytotoxic, agonist: MPLA (TLR4) […]
  NF-kB SEAP reporter activity: 1.19

## COC1CC2CCC(C)C(O)(O2)C(=O)C(=O)N2CCCCC2C(=O)OC(C(C)CC2CCC(O)C(OC)C2)CC(=O)C(C)C=C(C)C(O)C(OC)C(=O)C(C)CC(C)C=CC=CC=C1C (stereo not given) (library stock concentration (final ~1000-fold dilution): 10 mM)
RAW-Dual [1]; agonist: LPS (TLR4) 0.1 ug/mL
  NF-kB SEAP reporter activity: 1.57
RAW-Dual [1]; [4]
  NF-kB SEAP reporter activity: 1.11
RAW-Dual [1]; [5]
  NF-kB SEAP reporter activity: 0.536
RAW-Dual [1]; [6]
  NF-kB SEAP reporter activity: 0.77

## CN1CCC(OC(c2ccccc2)c2ccccc2)CC1.Cl (library stock concentration (final ~1000-fold dilution): 10 mM)
RAW-Dual [1]; agonist: LPS (TLR4) 0.1 ug/mL
  NF-kB SEAP reporter activity: 1.15
RAW-Dual [1]; [4]
  NF-kB SEAP reporter activity: 0.662
RAW-Dual [1]; [5]
  NF-kB SEAP reporter activity: 1.01
RAW-Dual [1]; [6]
  NF-kB SEAP reporter activity: 0.852

## CN1CCC(OC(c2ccccc2)c2ccccc2)CC1.Cl
RAW-Dual [2]; [7]
  NF-kB SEAP reporter activity: 1.28
RAW-Dual [2]; [8]
  NF-kB SEAP reporter activity: 1.17

## CCC1(O)CC2CN(CCc3c([nH]c4ccccc34)C(C(=O)OC)(c3cc4c(cc3OC)N(C)C3C(O)(C(=O)OC)C(OC(C)=O)C5(CC)C=CCN6CCC43C65)C2)C1.O=S(=O)(O)O (stereo not given) (library stock concentration (final ~1000-fold dilution): 10 mM)
RAW-Dual [3]; agonist: LPS (TLR4) 0.1 ug/mL
  NF-kB SEAP reporter activity: 5.91
RAW-Dual [3]; [4]
  NF-kB SEAP reporter activity: 2.96
RAW-Dual [3]; [5]
  NF-kB SEAP reporter activity: 1.48
RAW-Dual [3]; [6]
  NF-kB SEAP reporter activity: 1.94

## CCC1(O)CC2CN(CCc3c([nH]c4ccccc34)C(C(=O)OC)(c3cc4c(cc3OC)N(C)C3C(O)(C(=O)OC)C(OC(C)=O)C5(CC)C=CCN6CCC43C65)C2)C1.O=S(=O)(O)O (stereo not given)
RAW-Dual [2]; library stock concentration (final ~1000-fold dilution): 10 mM, cytotoxicity flag (confluency mask): cytotoxic (confluency <70% of control), agonist: Imiquimod (TLR7) […]
  NF-kB SEAP reporter activity: 2.51
RAW-Dual [2]; library stock concentration (final ~1000-fold dilution): 10 mM, cytotoxicity flag (confluency mask): cytotoxic (confluency <70% of control), agonist: MPLA (TLR4) […]
  NF-kB SEAP reporter activity: 2.53

## CC(=O)c1c(C)c2cnc(Nc3ccc(N4CCNCC4)cn3)nc2n(C2CCCC2)c1=O.Cl (library stock concentration (final ~1000-fold dilution): 10 mM water)
RAW-Dual [1]; agonist: LPS (TLR4) 0.1 ug/mL
  NF-kB SEAP reporter activity: 1.7
RAW-Dual [1]; [4]
  NF-kB SEAP reporter activity: 0.27
RAW-Dual [1]; [5]
  NF-kB SEAP reporter activity: 0.715
RAW-Dual [1]; [6]
  NF-kB SEAP reporter activity: 1.13

## CC(=O)c1c(C)c2cnc(Nc3ccc(N4CCNCC4)cn3)nc2n(C2CCCC2)c1=O.Cl
RAW-Dual [2]; library stock concentration (final ~1000-fold dilution): 10 mM water, cytotoxicity flag (confluency mask): not cytotoxic, agonist: Imiquimod (TLR7) […]
  NF-kB SEAP reporter activity: 0.698
RAW-Dual [2]; library stock concentration (final ~1000-fold dilution): 10 mM water, cytotoxicity flag (confluency mask): not cytotoxic, agonist: MPLA (TLR4) […]
  NF-kB SEAP reporter activity: 1.11

## Cc1ccc(C(=O)c2ccc(CC(=O)O)n2C)cc1 (library stock concentration (final ~1000-fold dilution): 10 mM)
RAW-Dual [1]; agonist: LPS (TLR4) 0.1 ug/mL
  NF-kB SEAP reporter activity: 0.948
RAW-Dual [1]; [4]
  NF-kB SEAP reporter activity: 0.987
RAW-Dual [1]; [5]
  NF-kB SEAP reporter activity: 1.08
RAW-Dual [1]; [6]
  NF-kB SEAP reporter activity: 1.07

## Cc1ccc(C(=O)c2ccc(CC(=O)O)n2C)cc1
RAW-Dual [2]; [8]
  NF-kB SEAP reporter activity: 1.07
